# A collection of fitness landscapes (doi:10.1016/j.celrep.2020.107928)
# The full ranking holds about 81,000 sequences; the median of “one-hybrid fitness for binding parS DNA” is about -0.17, and the highest 2% start at about 0.51. The list shows a part of the results.
# B1: Caulobacter ParB omega fusion; a variant is named by its letters at X, in order, B8GW30 (parent)
# chain: MESVVVGEPGMSEGRRGLGRGLSALLGEVDAAPAQAPGEQLGGSREAPIEILQRNPDQPRRTFREEDLEDLSNSIREKGVLQPILVRPSPDTAGEYQIVAGERAWRAAQRAGLKTVPIMVRELDDLAVLEIGIIENVQRADLNVLEEALSYKVLMEKFERTQENIAQTIGKSXSHVANXMRLLXLPDEVQSYLVSGELTAXHARAIAAAADPVALAKQIIEGGLSVRETEALARKAPNLSAGKSKGGRPPRVKDTDTQALESDLSSVLGLDVSIDHRGSTGTLTITYATLEQLDDLCNRLTRGI
# Variants of: B1
# Assay: one-hybrid fitness for binding parS DNA (scaled: cognate 1, non-cognate 0); higher = stronger binding
# Settings: with parS DNA site
# Method in brief: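 Fitness is the rescaled log change in variant-to-wild-type read ratio, measured by Illumina sequencing of plasmids before and after bacterial one-hybrid selection. The scale puts cognate at 1 and non-cognate at 0. Selection of Caulobacter ParB libraries, four specificity codons randomised, took place in E. coli USO with a HIS3 reporter, site 19 bp from the promoter, over 48 hours at 37°C on M9-minus-histidine with 0.1 mM IPTG and 5 mM 3-AT.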
row,Variant,one-hybrid fitness for binding parS DNA
1,SVNR,≤ 0.2
2,TINR,≤ 0.2
3,SAID,≤ 0.2
4,PWHV,≤ 0.2
5,CHPS,≤ 0.2
6,LVWN,≤ 0.2
7,HPQW,≤ 0.2
8,FWVS,≤ 0.2
9,HIPM,≤ 0.2
10,TKFS,≤ 0.2
11,HPVR,≤ 0.2
12,IFEI,≤ 0.2
13,GMSG,≤ 0.2
14,HDPY,≤ 0.2
15,SFQT,≤ 0.2
16,IRCI,≤ 0.2
17,NAPL,≤ 0.2
18,MHLW,≤ 0.2
19,RYST,0.862
20,LRYH,≤ 0.2
21,YAMY,≤ 0.2
22,NRWY,≤ 0.2
23,PIPA,≤ 0.2
24,IATT,≤ 0.2
25,RKGD,≤ 0.2

row,Variant,one-hybrid fitness for binding parS DNA
1,ELSW,≤ 0.2
2,EPSS,≤ 0.2
3,WESG,≤ 0.2
4,QTTS,≤ 0.2
5,MSMS,≤ 0.2
6,WHLD,≤ 0.2
7,MLPF,≤ 0.2
8,TQTF,≤ 0.2
9,AQRI,≤ 0.2
10,HDCT,≤ 0.2
11,RVIK,≤ 0.2
12,QLSM,≤ 0.2
13,EFNG,≤ 0.2
14,SAHR,≤ 0.2
15,FMSQ,0.554
16,GGEC,≤ 0.2
17,SGAG,≤ 0.2
18,PDGR,≤ 0.2
19,LSLY,≤ 0.2
20,PTII,≤ 0.2
21,VWEG,≤ 0.2
22,DMSM,≤ 0.2
23,PFQM,≤ 0.2
24,PHTS,≤ 0.2
25,QTFA,≤ 0.2

row,Variant,one-hybrid fitness for binding parS DNA
1,DRYR,≤ 0.2
2,AKFC,≤ 0.2
3,VRTT,≤ 0.2
4,QVLI,≤ 0.2
5,QVVG,≤ 0.2
6,SPAM,≤ 0.2
7,RACT,0.852
8,YRET,≤ 0.2
9,CDNR,≤ 0.2
10,PWVG,≤ 0.2
11,NPFY,≤ 0.2
12,YYRV,≤ 0.2
13,QYCI,≤ 0.2
14,SRTD,≤ 0.2
15,WRTR,≤ 0.2
16,SIST,≤ 0.2
17,KKPT,≤ 0.2
18,QQRS,≤ 0.2
19,PIFL,≤ 0.2
20,KRRM,≤ 0.2
21,KEPC,0.255
22,TSTT,≤ 0.2
23,NSWS,≤ 0.2
24,SKDC,≤ 0.2
25,RLHK,≤ 0.2

row,Variant,one-hybrid fitness for binding parS DNA
1,GGNT,≤ 0.2
2,YVHR,≤ 0.2
3,CTEL,≤ 0.2
4,QYDA,≤ 0.2
5,PNPE,≤ 0.2
6,KTNN,≤ 0.2
7,KFFY,≤ 0.2
8,CKLR,≤ 0.2
9,ASFG,≤ 0.2
10,ALLH,≤ 0.2
11,PSFP,≤ 0.2
12,VTIT,≤ 0.2
13,RKVF,≤ 0.2
14,PCCR,≤ 0.2
15,ADTF,≤ 0.2
16,AIRF,≤ 0.2
17,DAWR,≤ 0.2
18,QQWF,≤ 0.2
19,TRPW,≤ 0.2
20,YESG,≤ 0.2
21,NLEG,≤ 0.2
22,MIVV,≤ 0.2
23,QAHI,≤ 0.2
24,ARMY,≤ 0.2
25,LLCG,≤ 0.2

row,Variant,one-hybrid fitness for binding parS DNA
1,SESM,≤ 0.2
2,GLCR,≤ 0.2
3,TLWW,≤ 0.2
4,RVNQ,≤ 0.2
5,FGDG,≤ 0.2
6,YKCE,≤ 0.2
7,CWHS,≤ 0.2
8,LALC,≤ 0.2
9,AQSM,≤ 0.2
10,QYMV,≤ 0.2
11,VNRP,≤ 0.2
12,RLIH,0.21
13,QTGT,≤ 0.2
14,KFVR,≤ 0.2
15,GMCA,≤ 0.2
16,YQDG,≤ 0.2
17,VGDA,≤ 0.2
18,FLKC,≤ 0.2
19,NMKR,≤ 0.2
20,NHLG,≤ 0.2
21,NYAM,≤ 0.2
22,ETAI,≤ 0.2
23,TNAN,≤ 0.2
24,SNDD,≤ 0.2
25,QSNE,≤ 0.2

row,Variant,one-hybrid fitness for binding parS DNA
1,MTQH,≤ 0.2
2,AHKT,≤ 0.2
3,LWGS,≤ 0.2
4,RRND,≤ 0.2
5,RSKD,≤ 0.2
6,RVAA,0.582
7,LLIR,≤ 0.2
8,MVDG,≤ 0.2
9,DMNV,≤ 0.2
10,EFTR,≤ 0.2
11,LQYA,≤ 0.2
12,LSRT,≤ 0.2
13,TSNC,≤ 0.2
14,RENT,≤ 0.2
15,KAWR,≤ 0.2
16,TCMD,≤ 0.2
17,LYSG,≤ 0.2
18,QYDF,≤ 0.2
19,VKQG,≤ 0.2
20,PPLC,≤ 0.2
21,GRLG,≤ 0.2
22,RRWL,≤ 0.2
23,RWNP,≤ 0.2
24,GRSS,≤ 0.2
25,ASYM,≤ 0.2

row,Variant,one-hybrid fitness for binding parS DNA
1,YSTF,≤ 0.2
2,KILW,≤ 0.2
3,LDPR,≤ 0.2
4,RYLT,0.911
5,TFTK,≤ 0.2
6,VIMF,≤ 0.2
7,RTKY,0.89
8,RINR,≤ 0.2
9,VTTF,≤ 0.2
10,TVDL,≤ 0.2
11,CRLE,≤ 0.2
12,KITS,≤ 0.2
13,SSSC,≤ 0.2
14,EQFV,≤ 0.2
15,YTPT,≤ 0.2
16,HPDG,≤ 0.2
17,LTMA,0.262
18,RMYL,≤ 0.2
19,THKG,≤ 0.2
20,LPRP,≤ 0.2
21,TVTN,≤ 0.2
22,YKNY,≤ 0.2
23,QCFP,≤ 0.2
24,QPKT,≤ 0.2
25,TGKL,≤ 0.2

row,Variant,one-hybrid fitness for binding parS DNA
1,HKKF,≤ 0.2
2,PIIR,≤ 0.2
3,QMVI,≤ 0.2
4,PRTH,≤ 0.2
5,HKKG,≤ 0.2
6,ADSA,≤ 0.2
7,QMGM,≤ 0.2
8,QKAR,≤ 0.2
9,MANY,≤ 0.2
10,QAWH,≤ 0.2
11,ICAV,≤ 0.2
12,PKFV,≤ 0.2
13,MYQR,≤ 0.2
14,RNHC,0.798
15,RNGK,≤ 0.2
16,KNLN,≤ 0.2
17,VNIM,≤ 0.2
18,YPSM,≤ 0.2
19,MRDR,≤ 0.2
20,GARH,≤ 0.2
